Source: article PMC5062570 (Nature Communications, 2016)
Several values for one entry are separate records, joined by “and”; a condition that tells them apart may be missing. Identical values can stand only once.

Experiments:
[1] = target: PF-7802-labelled proteins in ARPE-19 cells (Homo sapiens, UniProt O00592); settings: protein PODXL Podocalyxin (O00592); replicates in separate columns
[2] = target: PF-7802-labelled proteins in ARPE-19 cells (Homo sapiens, UniProt P11717); settings: protein IGF2R Cation-independent mannose-6-phosphate receptor (P11717); one column per replicate
[3] = target: PF-7802-labelled proteins in ARPE-19 cells (Homo sapiens, UniProt P13612); settings: protein ITGA4 Integrin alpha-4 (P13612); one column per replicate
[4] = target: PF-7802-labelled proteins in ARPE-19 cells (Homo sapiens, UniProt P26373); settings: protein RPL13 60S ribosomal protein L13, P26373
[5] = target: PF-7802-labelled proteins in ARPE-19 cells (Homo sapiens, UniProt O00469)
[6] = target: PF-7802-labelled proteins in ARPE-19 cells (Homo sapiens, UniProt P40939); settings: P40939 HADHA Trifunctional enzyme subunit alpha, mitochondrial
[7] = target: PF-7802-labelled proteins in ARPE-19 cells (Homo sapiens, UniProt O75367); settings: O75367 H2AFY Core histone macro-H2A.1
Chain of UniProt O75367 (O75367 whole entry): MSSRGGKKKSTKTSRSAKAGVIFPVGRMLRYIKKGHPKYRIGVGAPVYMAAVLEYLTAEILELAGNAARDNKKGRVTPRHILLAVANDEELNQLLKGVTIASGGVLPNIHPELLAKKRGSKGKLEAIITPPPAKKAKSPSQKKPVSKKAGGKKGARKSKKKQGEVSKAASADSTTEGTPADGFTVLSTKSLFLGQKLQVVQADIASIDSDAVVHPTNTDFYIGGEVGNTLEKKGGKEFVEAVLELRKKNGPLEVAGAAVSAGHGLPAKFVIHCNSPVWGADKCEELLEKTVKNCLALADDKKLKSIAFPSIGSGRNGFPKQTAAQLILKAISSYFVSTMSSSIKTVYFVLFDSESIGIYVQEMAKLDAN

[8] = target: PF-7802-labelled proteins in ARPE-19 cells (Homo sapiens, UniProt P22314); settings: UBA1 Ubiquitin-like modifier-activating enzyme 1 (P22314)
Chain of UniProt P22314 (P22314 whole entry): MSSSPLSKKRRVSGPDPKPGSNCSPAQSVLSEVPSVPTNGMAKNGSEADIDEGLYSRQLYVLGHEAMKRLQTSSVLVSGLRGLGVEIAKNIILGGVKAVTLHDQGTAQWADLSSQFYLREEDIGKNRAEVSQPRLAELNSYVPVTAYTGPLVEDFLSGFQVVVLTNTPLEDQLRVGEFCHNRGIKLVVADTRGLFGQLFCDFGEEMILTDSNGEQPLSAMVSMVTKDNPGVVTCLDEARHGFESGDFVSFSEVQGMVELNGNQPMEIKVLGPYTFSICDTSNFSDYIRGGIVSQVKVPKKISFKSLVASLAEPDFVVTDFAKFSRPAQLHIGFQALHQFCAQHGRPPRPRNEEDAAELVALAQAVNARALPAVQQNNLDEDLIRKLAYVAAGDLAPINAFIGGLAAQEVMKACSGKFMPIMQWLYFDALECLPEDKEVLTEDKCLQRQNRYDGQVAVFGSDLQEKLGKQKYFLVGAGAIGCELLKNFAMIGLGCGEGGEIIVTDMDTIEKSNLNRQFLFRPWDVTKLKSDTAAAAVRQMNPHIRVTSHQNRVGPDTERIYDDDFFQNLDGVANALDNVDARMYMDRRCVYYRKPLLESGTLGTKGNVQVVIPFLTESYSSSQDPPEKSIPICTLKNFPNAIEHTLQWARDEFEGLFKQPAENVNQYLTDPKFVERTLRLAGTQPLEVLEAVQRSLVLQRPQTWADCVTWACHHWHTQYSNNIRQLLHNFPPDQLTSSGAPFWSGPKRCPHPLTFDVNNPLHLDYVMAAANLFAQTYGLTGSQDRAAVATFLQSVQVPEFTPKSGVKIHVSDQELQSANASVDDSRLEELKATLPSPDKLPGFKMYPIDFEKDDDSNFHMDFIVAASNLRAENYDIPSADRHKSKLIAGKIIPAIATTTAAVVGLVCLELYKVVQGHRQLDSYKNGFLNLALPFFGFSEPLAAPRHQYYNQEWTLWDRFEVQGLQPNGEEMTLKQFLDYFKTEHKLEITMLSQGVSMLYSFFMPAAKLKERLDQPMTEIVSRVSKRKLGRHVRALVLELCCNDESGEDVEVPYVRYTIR

[9] = target: PF-7802-labelled proteins in ARPE-19 cells (Homo sapiens, UniProt P23368); settings: protein ME2 NAD-dependent malic enzyme, mitochondrial (P23368); replicates in separate columns
[10] = target: PF-7802-labelled proteins in ARPE-19 cells (Homo sapiens, UniProt Q9Y639); settings: protein NPTN Neuroplastin (Q9Y639); replicates in separate columns
[11] = target: PF-7802-labelled proteins in ARPE-19 cells (Homo sapiens, UniProt P22626)
Chain of UniProt P22626 (P22626 whole entry): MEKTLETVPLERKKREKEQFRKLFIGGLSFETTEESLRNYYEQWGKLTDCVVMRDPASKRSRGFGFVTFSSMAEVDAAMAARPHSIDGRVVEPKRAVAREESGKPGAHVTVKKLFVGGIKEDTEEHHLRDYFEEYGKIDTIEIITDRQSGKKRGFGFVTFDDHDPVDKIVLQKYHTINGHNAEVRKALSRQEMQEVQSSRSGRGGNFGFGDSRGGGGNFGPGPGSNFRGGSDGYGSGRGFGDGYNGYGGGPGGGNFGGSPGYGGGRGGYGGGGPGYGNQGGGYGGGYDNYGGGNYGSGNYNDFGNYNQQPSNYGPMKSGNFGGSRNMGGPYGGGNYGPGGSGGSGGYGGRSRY

[12] = target: PF-7802-labelled proteins in ARPE-19 cells (Homo sapiens, UniProt Q99536); settings: VAT1 Synaptic vesicle membrane protein VAT-1 homolog (Q99536)
[13] = target: PF-7802-labelled proteins in ARPE-19 cells (Homo sapiens, UniProt P27816); settings: protein MAP4 Microtubule-associated protein 4 (P27816); replicates in separate columns
[14] = target: PF-7802-labelled proteins in ARPE-19 cells (Homo sapiens, UniProt P42785); settings: protein PRCP Lysosomal Pro-X carboxypeptidase, P42785
[15] = target: PF-7802-labelled proteins in ARPE-19 cells (Homo sapiens, UniProt Q06323); settings: protein PSME1 Proteasome activator complex subunit 1, Q06323
[16] = target: PF-7802-labelled proteins in ARPE-19 cells (Homo sapiens, UniProt Q15019); settings: SEPT2 Septin-2 (Q15019)
[17] = target: PF-7802-labelled proteins in ARPE-19 cells (Homo sapiens, UniProt Q15366); settings: protein PCBP2 Poly(rC)-binding protein 2 (Q15366); replicates in separate columns
Chain of UniProt Q15366 (Q15366 whole entry): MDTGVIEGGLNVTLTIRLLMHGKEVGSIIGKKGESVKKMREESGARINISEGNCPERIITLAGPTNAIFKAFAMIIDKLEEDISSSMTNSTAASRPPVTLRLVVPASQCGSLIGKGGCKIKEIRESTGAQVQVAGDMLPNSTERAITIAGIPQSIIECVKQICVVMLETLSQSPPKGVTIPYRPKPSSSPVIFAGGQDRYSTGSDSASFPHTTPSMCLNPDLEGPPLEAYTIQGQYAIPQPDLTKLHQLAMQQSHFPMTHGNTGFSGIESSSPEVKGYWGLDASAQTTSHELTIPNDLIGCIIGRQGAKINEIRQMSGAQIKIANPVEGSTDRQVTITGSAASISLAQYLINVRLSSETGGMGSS

[18] = target: PF-7802-labelled proteins in ARPE-19 cells (Homo sapiens, UniProt Q13492); settings: protein PICALM Phosphatidylinositol-binding clathrin assembly protein (Q13492); replicates in separate columns
Chain of UniProt Q13492 (Q13492 whole entry): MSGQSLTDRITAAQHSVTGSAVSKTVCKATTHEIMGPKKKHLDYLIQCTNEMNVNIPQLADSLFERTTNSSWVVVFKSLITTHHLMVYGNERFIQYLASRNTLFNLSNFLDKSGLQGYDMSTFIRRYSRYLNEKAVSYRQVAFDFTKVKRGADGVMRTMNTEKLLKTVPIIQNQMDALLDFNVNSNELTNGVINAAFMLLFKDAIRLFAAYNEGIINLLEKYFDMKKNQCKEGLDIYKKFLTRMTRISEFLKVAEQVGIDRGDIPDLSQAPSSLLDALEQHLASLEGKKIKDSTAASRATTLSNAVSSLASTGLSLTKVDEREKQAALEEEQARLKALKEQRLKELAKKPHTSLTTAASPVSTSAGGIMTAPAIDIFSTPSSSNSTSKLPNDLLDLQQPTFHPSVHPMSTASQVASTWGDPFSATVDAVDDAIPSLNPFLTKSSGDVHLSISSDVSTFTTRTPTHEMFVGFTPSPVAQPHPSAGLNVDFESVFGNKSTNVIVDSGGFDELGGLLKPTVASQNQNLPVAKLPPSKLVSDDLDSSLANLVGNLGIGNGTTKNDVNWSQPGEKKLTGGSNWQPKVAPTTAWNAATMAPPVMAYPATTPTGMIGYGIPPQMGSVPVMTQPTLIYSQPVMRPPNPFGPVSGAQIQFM

[19] = target: PF-7802-labelled proteins in ARPE-19 cells (Homo sapiens, UniProt Q9H0U4); settings: protein RAB1B Ras-related protein Rab-1B, Q9H0U4
Chain of UniProt Q9H0U4 (Q9H0U4 whole entry): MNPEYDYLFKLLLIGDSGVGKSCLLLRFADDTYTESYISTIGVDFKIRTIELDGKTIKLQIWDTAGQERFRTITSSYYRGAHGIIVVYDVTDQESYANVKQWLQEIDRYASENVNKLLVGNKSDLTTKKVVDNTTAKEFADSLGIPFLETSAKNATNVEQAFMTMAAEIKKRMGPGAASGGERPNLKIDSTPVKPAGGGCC

[20] = target: PF-7802-labelled proteins in ARPE-19 cells (Homo sapiens, UniProt Q16798); settings: protein ME3 NADP-dependent malic enzyme, mitochondrial (Q16798); replicates in separate columns
[21] = target: PF-7802-labelled proteins in ARPE-19 cells (Homo sapiens, UniProt P05386); settings: protein RPLP1 60S acidic ribosomal protein P1, P05386
Chain of UniProt P05386 (P05386 whole entry): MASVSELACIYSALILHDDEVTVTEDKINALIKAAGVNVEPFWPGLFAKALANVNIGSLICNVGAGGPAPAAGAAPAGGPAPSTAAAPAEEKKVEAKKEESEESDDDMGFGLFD

[22] = target: PF-7802-labelled proteins in ARPE-19 cells (Homo sapiens, UniProt P32969); settings: protein RPL9P9 60S ribosomal protein L9, P32969
[23] = target: PF-7802-labelled proteins in ARPE-19 cells (Homo sapiens, UniProt Q07157); settings: TJP1 Tight junction protein ZO-1 (Q07157)
Chain of UniProt Q07157 (Q07157 whole entry): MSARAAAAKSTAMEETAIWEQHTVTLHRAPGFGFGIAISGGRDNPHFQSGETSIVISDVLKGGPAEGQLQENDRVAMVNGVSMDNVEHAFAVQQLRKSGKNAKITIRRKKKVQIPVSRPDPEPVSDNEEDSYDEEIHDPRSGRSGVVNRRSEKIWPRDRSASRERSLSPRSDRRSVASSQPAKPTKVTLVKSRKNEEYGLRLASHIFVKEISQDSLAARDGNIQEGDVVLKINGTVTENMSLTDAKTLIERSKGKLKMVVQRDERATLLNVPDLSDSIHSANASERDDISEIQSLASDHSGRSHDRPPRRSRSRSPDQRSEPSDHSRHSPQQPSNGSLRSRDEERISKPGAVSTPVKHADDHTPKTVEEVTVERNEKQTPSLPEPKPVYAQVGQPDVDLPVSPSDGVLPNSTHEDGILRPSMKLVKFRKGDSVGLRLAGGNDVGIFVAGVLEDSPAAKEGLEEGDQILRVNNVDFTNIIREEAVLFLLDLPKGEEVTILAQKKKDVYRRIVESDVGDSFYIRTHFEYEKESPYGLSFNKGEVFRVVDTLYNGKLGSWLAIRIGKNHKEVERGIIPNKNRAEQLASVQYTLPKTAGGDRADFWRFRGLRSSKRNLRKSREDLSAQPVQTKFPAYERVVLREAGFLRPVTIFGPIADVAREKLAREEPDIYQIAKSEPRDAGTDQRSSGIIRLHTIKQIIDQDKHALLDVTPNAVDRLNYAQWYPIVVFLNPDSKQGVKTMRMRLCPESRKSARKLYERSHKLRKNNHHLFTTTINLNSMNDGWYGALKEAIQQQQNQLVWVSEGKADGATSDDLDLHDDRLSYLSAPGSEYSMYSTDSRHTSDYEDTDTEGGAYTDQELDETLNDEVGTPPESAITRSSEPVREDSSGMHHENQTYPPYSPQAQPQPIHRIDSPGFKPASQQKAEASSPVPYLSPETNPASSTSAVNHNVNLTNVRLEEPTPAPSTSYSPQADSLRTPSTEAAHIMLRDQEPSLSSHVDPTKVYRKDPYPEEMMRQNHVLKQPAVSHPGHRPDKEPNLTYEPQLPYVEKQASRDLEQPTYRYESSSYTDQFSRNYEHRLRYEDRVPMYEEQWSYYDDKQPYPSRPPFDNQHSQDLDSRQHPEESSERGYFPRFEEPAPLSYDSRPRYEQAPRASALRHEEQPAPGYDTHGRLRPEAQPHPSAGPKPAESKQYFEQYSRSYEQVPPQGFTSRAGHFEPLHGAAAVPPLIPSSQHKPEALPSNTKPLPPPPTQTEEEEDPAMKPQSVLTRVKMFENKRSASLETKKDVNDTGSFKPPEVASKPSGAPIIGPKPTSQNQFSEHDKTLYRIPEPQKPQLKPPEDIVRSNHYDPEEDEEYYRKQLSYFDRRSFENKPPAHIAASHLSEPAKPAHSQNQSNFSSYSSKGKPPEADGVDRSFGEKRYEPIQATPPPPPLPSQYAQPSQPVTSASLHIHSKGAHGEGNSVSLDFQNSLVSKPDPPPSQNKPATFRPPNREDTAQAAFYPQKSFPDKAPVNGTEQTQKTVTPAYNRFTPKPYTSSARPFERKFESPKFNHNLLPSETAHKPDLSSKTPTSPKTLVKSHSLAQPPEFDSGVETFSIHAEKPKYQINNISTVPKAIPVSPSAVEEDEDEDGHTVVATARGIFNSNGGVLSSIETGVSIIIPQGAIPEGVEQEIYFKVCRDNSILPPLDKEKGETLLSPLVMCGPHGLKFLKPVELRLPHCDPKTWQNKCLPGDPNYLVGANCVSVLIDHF

CNC1CCN(C(=O)C[C@@H](Cc2ccccc2)C(=O)N[C@@H](CSC)C(=O)N[C@@H](CC2CCCCC2)[C@@H](O)C(=O)OC(C)C)CC1 [CP-108671, reference compound]
Median SILAC Ratio (Heavy/Light) [1]: 1.034
Median SILAC Ratio (Heavy/Light) [2]: 0.7419
Median SILAC Ratio (Heavy/Light) [3]: 1.271
Median SILAC Ratio (Heavy/Light) [4]: 1.51
SILAC ratio (DMSO/CP-108671) ([5]; O00469 PLOD2 Procollagen-lysine,2-oxoglutarate 5-dioxygenase 2): 0.89
Median SILAC Ratio (Heavy/Light) ([5]; protein PLOD2 Procollagen-lysine,2-oxoglutarate 5-dioxygenase 2 (O00469), replicates in separate columns): 1.122
SILAC ratio (DMSO/CP-108671) [6]: 0.84
SILAC ratio (DMSO/CP-108671) [7]: 0.88
Median SILAC Ratio (Heavy/Light) [8]: 2.31
Median SILAC Ratio (Heavy/Light) [9]: 2.744
Median SILAC Ratio (Heavy/Light) [10]: 1.109
SILAC ratio (DMSO/CP-108671) ([11]; P22626 HNRNPA2B1 Heterogeneous nuclear ribonucleoproteins A2/B1): 0.94
Median SILAC Ratio (Heavy/Light) ([11]; protein HNRNPA2B1 Heterogeneous nuclear ribonucleoproteins A2/B1 (P22626), one column per replicate): 1.089 and 0.9918
Median SILAC Ratio (Heavy/Light) [12]: 1.26
Median SILAC Ratio (Heavy/Light) [13]: 1.791

Cc1cc([C@H]2C[C@H]3[C@@H](C)SC(N)=N[C@@]3(c3ccc(F)cc3F)CO2)on1 [PF-9283]
Median SILAC Ratio (Heavy/Light) [14]: 1.1158
Median SILAC Ratio (Heavy/Light) [15]: 0.5604
Median SILAC Ratio (Heavy/Light) [16]: 1.395
Median SILAC Ratio (Heavy/Light) [17]: 3.513
Median SILAC Ratio (Heavy/Light) [18]: 1.395 and 0.621
Median SILAC Ratio (Heavy/Light) [19]: 1.537 and 0.9161
Median SILAC Ratio (Heavy/Light) [20]: 0.9366
Median SILAC Ratio (Heavy/Light) [21]: 1.074
Median SILAC Ratio (Heavy/Light) [22]: 1.099 and 1.768
Median SILAC Ratio (Heavy/Light) [23]: 1.387
